Among all 39,000 compounds or so, about 220 (0.56%) showed activity. Some of the results follow.
What follows are molecules tested on Escherichia coli K-12 BW25113 (assay: relative growth (OD600 normalised to plate interquartile mean) (fraction); higher = less growth inhibition, active = 0.2 or less). Conditions: 50 µM; LB; incubation time: overnight (16-24 h).
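Also: static incubation at 37 °C against the wild-type strain, values averaged over two biological replicates.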

| SMILES | relative growth |
| --- | --- |
| CC(C)[C@H]1COC(=O)N1 | inactive: 0.987 |
| Cc1ccc(S(=O)(=O)Nc2ccc3c(c2)CC(=O)N([C@@H](C)CO)C[C@@H](C)[C@H](CN(C)Cc2ccncc2)O3)cc1 | inactive: 1.01 |
| C[C@@H]1CN([C@@H](C)CO)C(=O)c2cc(NS(=O)(=O)c3ccccc3)ccc2O[C@H]1CN(C)S(=O)(=O)c1cn(C)cn1 | inactive: 0.9 |
| C[C@H]1CN([C@@H](C)CO)C(=O)c2cccc(NC(=O)Nc3ccc(C(F)(F)F)cc3)c2O[C@H]1CN(C)C(=O)Nc1cccc2ccccc12 | inactive: 0.937 |
| O=C(C[C@@H]1CC[C@@H](NC(=O)c2cccnc2)[C@H](CO)O1)NCCN1CCCCC1 | inactive: 0.987 |
| COc1ccc(O)c(N)c1 | inactive: 0.989 |
| C[C@H](CO)N1C[C@H](C)[C@@H](CN(C)Cc2ccc(Oc3ccccc3)cc2)Oc2ccc(NS(=O)(=O)c3cccs3)cc2CC1=O | inactive: 0.96 |
| COC(CN(C)C(=O)c1cn(C)c2ccc(S(=O)(=O)N3CCOCC3)cc2c1=O)OC | inactive: 0.971 |
| C[C@H](CO)N1C[C@H](C)[C@@H](CN(C)C(=O)Nc2ccc(F)cc2)OCCCC[C@H](C)Oc2ccc(NC(=O)Nc3ccc(C(F)(F)F)cc3)cc2C1=O | inactive: 1.03 |
| c1ccc(-c2nc(C34CC5CC(CC(C5)C3)C4)cs2)cc1 | inactive: 1.03 |
| Cn1cnc(S(=O)(=O)N2C[C@@H](O)COC[C@@H]3O[C@@H](CC(=O)NC4CCC4)CC[C@H]32)c1 | inactive: 0.999 |
| COc1ccc(S(=O)(=O)N(C)C[C@@H]2Oc3ccc(NC(=O)CCCN(C)C)cc3CC(=O)N([C@H](C)CO)C[C@H]2C)cc1 | inactive: 0.973 |
| COc1ccc(C#Cc2cccc(-c3nc(C(=O)N[C@@H]4CCN(Cc5ccccc5)C4)cc4c3[C@H](CCO)N(S(=O)C(C)(C)C)C4)c2)cc1OC (stereo partly specified) | inactive: 1.01 |
| CO[C@H]1CN(C)C(=O)c2cc(NC(=O)Nc3cccc(Cl)c3)ccc2OC[C@H](C)N(C(=O)Nc2c(C)noc2C)C[C@H]1C | inactive: 0.989 |
| Cc1noc(C)c1NC(=O)N(C)C[C@H]1Oc2ccc(NC(=O)NC(C)C)cc2CC(=O)N([C@@H](C)CO)C[C@H]1C | inactive: 1 |
| Cc1ccc(S(=O)(=O)N(C)C[C@@H]2OCCCC[C@H](C)Oc3ccc(NC(=O)Nc4c(C)noc4C)cc3C(=O)N([C@H](C)CO)C[C@@H]2C)cc1 | inactive: 0.99 |
| Cc1noc(C)c1NC(=O)Nc1ccc2c(c1)C(=O)N([C@H](C)CO)C[C@@H](C)[C@@H](CN(C)Cc1ccncc1)OCCCC[C@H](C)O2 | inactive: 0.976 |
| CCCN1C[C@@H](C)[C@@H](OC)CN(C)C(=O)c2ccc(NS(=O)(=O)c3cn(C)cn3)cc2OC[C@@H]1C | inactive: 0.997 |
| C[C@@H]1CN([C@H](C)CO)C(=O)c2cccc(NC(=O)c3cnccn3)c2O[C@H]1CN(C)Cc1ccncc1 | inactive: 0.993 |
| COc1ccc(NC(=O)Nc2ccc3c(c2)C(=O)N([C@@H](C)CO)C[C@H](C)[C@@H](CN(C)C(=O)Nc2ccc(F)cc2)OCCCC[C@H](C)O3)cc1 | inactive: 1.03 |
| C=CCC[C@@H](Cc1ccc(F)cc1)C(=O)OC[C@@H](NC(=O)[C@H](CC=C)CC(=O)N(CCO)Cc1ccccc1)c1ccccc1 | inactive: 1.09 |

| SMILES | relative growth |
| --- | --- |
| C[C@@H]1CCCCO[C@@H](CN(C)S(=O)(=O)c2cccs2)[C@@H](C)CN([C@H](C)CO)C(=O)c2cc(NC(=O)CCCCCC(=O)Nc3ccccc3N)ccc2O1 | inactive: 1.03 |
| Cc1cc(C)c(NC(=O)[C@@H](N)Cc2ccccc2)c(Cl)c1 | inactive: 1.02 |
| C[C@@H]1CN([C@@H](C)CO)S(=O)(=O)c2ccc(C#CCN(C)C)cc2O[C@@H]1CN(C)Cc1ccc2c(c1)OCO2 | inactive: 1 |
| CC(=O)c1ccn[nH]1 | inactive: 1.01 |
| NC(Cc1cc(I)c(Oc2ccc(O)c(I)c2)c(I)c1)C(=O)[O-].[Na+] [LIOTHYRONINE (L- isomer) SODIUM] | inactive: 0.951 |
| CO[C@@H](CN(C)S(=O)(=O)c1ccc(Cl)cc1)[C@@H](C)CN([C@@H](C)CO)S(=O)(=O)c1cccc(Cl)c1 | inactive: 1.02 |
| C[C@@H]1CN([C@@H](C)CO)C(=O)c2cc(C#CCC3CCCC3)cnc2O[C@H]1CN(C)C(=O)c1cnccn1 | inactive: 0.877 |
| C[C@@H]1CCCCO[C@H](CN(C)C(=O)c2ccccc2)[C@H](C)CN([C@@H](C)CO)C(=O)c2cc(NC(=O)c3ccccc3)ccc2O1 | inactive: 0.983 |
| Cc1cc(C(=O)Nc2cccc3c2O[C@H](CN(C)Cc2ccncc2)[C@H](C)CN([C@@H](C)CO)C3=O)n(C)n1 | inactive: 1.01 |
| Cc1ccc(S(=O)(=O)Nc2ccc3c(c2)C(=O)N([C@H](C)CO)C[C@H](C)[C@@H](CN(C)S(=O)(=O)c2ccc(Cl)cc2)OCCCC[C@@H](C)O3)cc1 | inactive: 0.993 |
| CO[C@@H]1CN(C)C(=O)c2ccc(NC(=O)Nc3cccc(Cl)c3)cc2OC[C@H](C)N(C(=O)Nc2c(C)noc2C)C[C@H]1C | inactive: 1.02 |
| COc1cccc(S(=O)(=O)N(C)C[C@H]2Oc3ncc(C#CC(C)C)cc3C(=O)N([C@@H](C)CO)C[C@H]2C)c1 | inactive: 1 |
| C[C@@H]1CN([C@H](C)CO)C(=O)c2cccc(NS(=O)(=O)c3cn(C)cn3)c2O[C@@H]1CN(C)CC1CC1 | inactive: 0.989 |
| Cc1ccc(S(=O)(=O)Nc2ccc3c(c2)C(=O)N([C@H](C)CO)C[C@@H](C)[C@@H](CN(C)C(=O)Nc2ccc4c(c2)OCO4)OCCCC[C@H](C)O3)cc1 | inactive: 0.976 |
| CN1CCN(C(=O)C[C@@H]2C[C@H]3c4cc(NS(=O)(=O)c5ccc(F)cc5)ccc4O[C@H]3[C@@H](CO)O2)CC1 | inactive: 1 |
| C[C@H](O)C#Cc1cnc2c(c1)C(=O)N([C@H](C)CO)C[C@H](C)[C@@H](CN(C)C(=O)CN1CCOCC1)O2 | inactive: 0.996 |
| C[C@H]1CN([C@@H](C)CO)C(=O)c2cc(NC(=O)Cc3ccccc3)ccc2O[C@@H]1CN(C)S(=O)(=O)c1ccccc1 | inactive: 0.959 |
| CCS(=O)(=O)N1C[C@]2(CN(Cc3ccc4c(c3)OCO4)[C@H](CO)c3c2c2ccc(cc2n3C)OC)C1 | inactive: 1.02 |
| Cn1c(=O)n2n(c1=O)[C@H](C1CC1)C=C1CN3[C@@H]([C@H](Cc4ccccc4)OC(=O)[C@@H]3Cc3ccc(-n4cc(CCC(=O)NO)nn4)cc3)[C@@H]12 | inactive: 0.987 |
| O=C1OCC=C[C@H]2O[C@@]34C=CCN(CCN5CCOCC5)C(=O)[C@H]3N(CCCO)C(=O)[C@@H]4[C@@H]12 | inactive: 0.987 |
| CC(C)C#Cc1ccc2c(c1)O[C@@H](CN(C)C(=O)Cc1ccccn1)[C@H](C)CN([C@@H](C)CO)S2(=O)=O | inactive: 1.02 |

| SMILES | relative growth |
| --- | --- |
| C[C@H]1CN([C@@H](C)CO)C(=O)c2cc(-c3cccc(C(=O)N(C)C)c3)cnc2O[C@H]1CN(C)S(=O)(=O)c1ccccc1 | inactive: 0.993 |
| C[C@H]1CN([C@@H](C)CO)C(=O)c2c(c3ccccc3n2C)-c2ccccc2CO[C@@H]1CN(C)C(=O)c1cc(Cl)cc(Cl)c1 | inactive: 1.01 |
| O=c1cc[nH]c(=O)[nH]1 | inactive: 1.15 |
| NCc1cc2ccc(F)cc2[nH]c1=O | inactive: 1 |
| CO[C@H]1CN(C)C(=O)c2cc(NS(C)(=O)=O)ccc2OC[C@H](C)N(S(C)(=O)=O)C[C@H]1C | inactive: 1.01 |
| C[C@H]1CN([C@@H](C)CO)C(=O)c2ccccc2-c2ccccc2CO[C@H]1CN(C)Cc1ccc(-c2ccccc2)cc1 | inactive: 0.998 |
| C[C@H](CO)N1C[C@H](C)[C@H](CN(C)C(=O)c2ccccc2)OCCCC[C@H](C)Oc2ccc(NC(=O)Nc3ccccc3)cc2C1=O | inactive: 0.999 |
| CNC(=O)[C@H]1C[C@H]2CCN(S(=O)(=O)N(C)C)C[C@H]2O1 | inactive: 0.966 |
| Cc1ccc(Nc2ncc3c(n2)N(C)C(=O)N(c2cc(NC(=O)c4cccc(C(F)(F)F)c4)ccc2C)C3)cn1 | inactive: 1.08 |
| Cc1noc(C)c1NC(=O)Nc1cccc2c1O[C@@H](CN(C)C(=O)NC(C)C)[C@H](C)CN([C@H](C)CO)C2=O | inactive: 0.987 |
| C[C@@H]1CN([C@@H](C)CO)C(=O)c2cc(NS(C)(=O)=O)ccc2O[C@@H]1CN(C)S(=O)(=O)c1cccs1 | inactive: 0.999 |
| Cc1ccc(S(=O)(=O)N(C)C[C@H]2Oc3ccc(NS(=O)(=O)c4c(C)noc4C)cc3CC(=O)N([C@@H](C)CO)C[C@H]2C)cc1 | inactive: 0.989 |
| C[C@@H](CC(=O)O)n1ccnc1 | inactive: 1.02 |
| C[C@@H]1CCCCO[C@H](CN(C)C(=O)Nc2ccc3c(c2)OCO3)[C@@H](C)CN([C@H](C)CO)C(=O)c2cc(NC(=O)NC3CCCCC3)ccc2O1 | inactive: 0.977 |
| C[C@H]1CN([C@@H](C)CO)C(=O)c2cccc(NC(=O)c3ccncc3)c2O[C@@H]1CN(C)S(=O)(=O)c1cccs1 | inactive: 1.02 |
| C[C@@H]1CN([C@H](C)CO)C(=O)c2cc(NC(=O)Nc3ccccc3)ccc2O[C@@H](C)CCCCO[C@H]1CN(C)Cc1ccncc1 | inactive: 1.01 |
| CC(C)(C)[S@@](=O)N1Cc2cc(C(=O)NCc3ccncc3)nc(-c3cccc(-c4cccc(C#N)c4)c3)c2[C@H]1CCO | inactive: 0.992 |
| Cn1c(S(=O)(=O)CC(N)=O)nc2ccccc21 | inactive: 1.03 |
| COc1cccc(C(=O)Nc2ccc3c(c2)C(=O)N(C)[C@H]2CC[C@H](CC(=O)NCC4CC4)O[C@H]2CO3)c1 | inactive: 1.01 |

From the supplement of paper PMC9446081
